# Measured values reported in PubChem BioAssay AID1347073 (National Center for Advancing Translational Sciences (NCATS), 2019).
# The campaign covered roughly 45,000 compounds. About 200 (0.44%) were called active. Roughly 7% stayed inconclusive and do not appear here. The call rests on the fitted dose curve; in most records, active means well fitted activation curve with a large enough effect; inconclusive means small, poorly fitted or top-dose-only effect; inactive means no such curve, though single readings can be large or run the other way. The list shows a part of the results.
# Assay: qHTS of TDP-43 Inhibitors: NCGC Sytravon Library Screen; further: 0% is about no effect; nearly all actives have a fitted effect of over 55% in size
# Settings: yeast TDP-43 toxicity rescue, BacTiter-Glo growth, 24 h; series mostly up to 46.1 µM; growth rescue (activation): at the top concentration
# Summary of the method: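 TDP-43-expressing yeast, pregrown in raffinose, seeded at OD600 0.02 in galactose medium with compound for 24 hr at 30 deg C. Growth read by BacTiter-Glo luminescence, so rescue of toxicity appears as activation.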
row,Structure (SMILES),growth rescue (activation)
1,CCCc1nnc(NC(=O)c2cc3ccccc3oc2=O)s1,inactive: -38.8%
2,COc1ccc(OCC(=O)NNC(=O)c2cccc(C)c2)cc1,inactive: 5.1%
3,CCCCN=C1NN=C(c2cccc([N+](=O)[O-])c2)CS1,inactive: 20.5%
4,O=C(O)CSc1cc(NS(=O)(=O)c2ccc(Cl)cc2)c2ccccc2c1O,inactive: 33.7%
5,O=C(Nc1cccnc1)c1cc(-c2ccc(Cl)c(Cl)c2)on1,inactive: 29.4%
6,Cc1ccccc1-n1c(SCc2cccc(F)c2)nc2[nH]ncc2c1=O,inactive: 18.5%
7,COc1cccc(NC(=O)c2cccc(C(=O)Nc3cccc(OC)c3)n2)c1,inactive: 16%
8,Cc1nn(-c2cccc(Cl)c2)c2nc(C(F)(F)F)[nH]c(=O)c12,inactive: -0.254%
9,O=C(Nc1cccc(OCC(=O)N2CCOCC2)c1)c1ccc(C(F)(F)F)cc1,inactive: 16%
10,Cc1ccccc1NC(=O)CSc1ccncc1,inactive: 5.71%
11,CC(C)n1c(CNC(=O)c2ccccc2F)nnc1SCC(=O)NC1CCCCC1,inactive: -0.318%
12,O=C(Nc1ccccc1C(=O)N1CCCCC1)c1ccco1,inactive: -2.49%
13,Cc1ccc2c(CC(=O)NCCc3ccc(S(N)(=O)=O)cc3)coc2c1,inactive: 10.9%
14,O=[N+]([O-])c1ccccc1/C=N/NC1=NCCCCC1,inactive: 6.15%
15,Cc1ccc(-n2c(O)c(C=Nc3cc(C)on3)c3ccccc3c2=O)c(C)c1,inactive: -7.59%
16,O=C1c2ccccc2NC(c2ccco2)N1/N=C/c1ccco1 (stereo not given),inactive: -8.22%
17,CC1(C(=O)N2CCCCC2)CCN1C(=O)c1ccccc1CCc1ccccc1 (stereo not given),inactive: 6.71%
18,O=C(C1CCN(CCCc2ccccc2)CC1)N(CCc1ccccc1)Cc1ccccc1,inactive: -3.22%
19,O=C(CSc1nnc2c(Cl)cc(C(F)(F)F)cn12)N(Cc1ccccc1)Cc1ccccc1,inactive: 18.3%
20,CC(C)Cn1c(=O)c(-[n+]2ccccc2)c([O-])c2ccccc21,inactive: -3.9%
21,O=C(c1cccs1)N(c1ccc(F)cc1)C1C=CS(=O)(=O)C1 (stereo not given),inactive: -0.772%
22,CCNC(=O)/C(C#N)=C/c1c(N2CCN(c3ccc(OC)cc3)CC2)nc2c(C)cccn2c1=O,inactive: 3.42%

row,Structure (SMILES),growth rescue (activation)
1,CCC1=Nc2cc(C(=O)NCc3cccnc3)ccc2Sc2ccc(C)cc21,inactive: 0.868%
2,CCOC(=O)C1CCCN(CCC(=O)Nc2cccc(C)c2)C1 (stereo not given),inactive: 6.07%
3,O=C1c2ccccc2CN2C(=O)c3ccccc3CN12,inactive: 14.3%
4,CC(OC(=O)c1ccccc1NS(=O)(=O)c1cccc(C(F)(F)F)c1)C(=O)N(C)Cc1ccccc1 (stereo not given),inactive: 1.68%
5,COc1ccc2nc(C)cc(SCC(=O)N/N=C/c3ccccc3)c2c1,inactive: 11.1%
6,CC(C)CNC(=O)CSc1ccc(S(=O)(=O)N(C)C2CCCCC2)cn1,inactive: 24.8%
7,Cc1cccc(C(=O)NNC(=O)CSc2nnc(C(C)C)n2C)c1,inactive: 3.81%
8,O=C(COC(=O)c1cccnc1Cl)Nc1ccccc1OC(F)F,inactive: 30.9%
9,C/C(=N\Nc1cccc([N+](=O)[O-])c1)c1cc2ccccc2o1,inactive: -4.81%
10,O=C1Nc2ccc([N+](=O)[O-])cc2OC1CCN1CCOCC1 (stereo not given),inactive: 12.5%
11,CCOC(=O)c1sc(NC(=O)Nc2ccccc2)cc1C,inactive: 3.9%
12,CC(=O)Nc1ccc(SCC(=O)c2ccc(Br)s2)cc1,inactive: 18.1%
13,COC(CC(=O)NNC(=S)Nc1ccc(Cl)cc1)OC,inactive: -7.02%
14,O=C(O)CN1CCc2ccccc2C1,inactive: -17.6%
15,COCCNC(=O)C1CCCN(Cc2ccc(C(C)C)cc2)CC1 (stereo not given),inactive: 3.73%
16,COc1ccc(-c2cc3ncc(-c4ccccc4)c(N)n3n2)cc1,inactive: 29.8%
17,CCOc1ccc(-n2c(-c3ccccc3)c[nH]c2=S)cc1,inactive: 24.1%
18,OC1CCN(Cc2nc(Cc3ccccc3Cl)no2)CC1,inactive: -4.63%
19,COc1ccccc1CNC(=O)CN(CCc1ccccc1)S(C)(=O)=O,inactive: -6.1%
20,O=C(c1ccc(Br)o1)N1CCN(CCOc2ccccc2)CC1,inactive: 12.7%
21,N#C/C(=C\c1ccc(Sc2ccccc2)o1)c1nc2ccccc2[nH]1,inactive: 23.9%
22,O=C(O)c1ccccc1C(=O)Nc1ccc(S(=O)(=O)N2CCCC2)cc1,inactive: -13.6%

row,Structure (SMILES),growth rescue (activation)
1,COC(=O)c1ccc(CN2CCC(CO)(Cc3ccccc3Cl)CC2)cc1,inactive: 0.421%
2,O=C(COC(=O)c1cc[n+]([O-])cc1)Nc1ccc([N+](=O)[O-])cc1Cl,inactive: 10.5%
3,Cc1ccccc1C(=O)OCCN(C)Cc1ccccc1,inactive: -4.43%
4,CCN(CC)c1ccc(/C=C/C(=O)c2ccc(Br)cc2)cc1,inactive: 36.2%
5,Cc1ccc(S(=O)(=O)N(C)C)cc1NC(=O)COC(=O)c1ccc2c(c1)NC(=O)CS2,inactive: 7.31%
6,N/C(=N\N=C\c1ccco1)SC1CC(=O)N(c2ccc(C(=O)O)cc2)C1=O (stereo not given),inactive: 9.66%
7,COC(=O)/C=C/COc1ccccc1[N+](=O)[O-],inactive: 8.67%
8,CC(C)Cn1c(-c2cc([N+](=O)[O-])ccc2Cl)nc2c1c(=O)[nH]c(=O)n2Cc1ccccc1,inactive: 8.79%
9,CCNC(=O)N(C)c1c(CC)nc2ccc(C(=O)Nc3cccc(OCC(=O)N(C)C)c3)cn12,inactive: 0.513%
10,S=c1[nH]nc(-c2ccccn2)n1/N=C/c1cccc(Cl)c1,inactive: 6.73%
11,O=C(NC(=S)NCc1cccnc1)c1cc2ccccc2o1,inactive: 4.97%
12,CCn1c(=O)c([N+](=O)[O-])c(N2CCOCC2)c2ccccc21,inactive: -21.9%
13,CCC(=O)Nc1ccc(NC(=S)NC(=O)c2cc3ccccc3o2)cc1,inactive: 4.01%
14,Cn1c(=O)c2c(nc(N3CCOCC3)n2CCc2ccccc2)n(C)c1=O,inactive: -4.33%
15,CN(C)CCCN(Cc1ccccc1)C(=S)NCc1ccccc1,inactive: -6.85%
16,CCN(CC)c1ccc(/C=N/NC(=O)c2ccc3nc[nH]c3c2)c(O)c1,inactive: 27.5%
17,COc1ccc(-c2noc(C3CCCN(C(=O)c4cccc(F)c4)C3)n2)cc1 (stereo not given),inactive: 25.5%
18,Cc1cc(C(F)(F)F)nc(CCNC(=O)C2CCC(=O)N(Cc3cccc(F)c3)C2)n1 (stereo not given),inactive: 9.55%
19,COc1cc(C(=O)COC(=O)C2CC2(Cl)Cl)cc(OC)c1OC (stereo not given),inactive: 4.94%
20,O=C(Nc1cccc(S(=O)(=O)N2CCCC2)c1)[C@@H]1O[C@H](CO)[C@@H](O)[C@H]1O,inactive: 12.2%
21,CC1CCCC(C)N1C(=O)COc1ccccc1F (stereo not given),inactive: 1.83%
22,O=C(COC(=O)C1C2CC3OC(=O)C1C3C2)Nc1ccc(Br)cc1 (stereo not given),inactive: 4.33%

row,Structure (SMILES),growth rescue (activation)
1,O=C(NCCC(c1ccccc1)c1ccccc1)c1cnccn1,inactive: 9.95%
2,COc1ccc(Oc2nc(-c3ccccn3)ncc2OC)cc1,inactive: -14.4%
3,O=C(Cn1cc(C(F)(F)F)ccc1=O)N/N=C/c1ccc(Cl)c(Cl)c1,inactive: 13.9%
4,Nc1ccccc1SCc1ccccc1,inactive: 12.2%
5,Cc1ccccc1OCC(=O)OCC(=O)N1CCc2ccccc21,inactive: 3.27%
6,NS(=O)(=O)c1ccc(N2C(=O)C3C4CC(C(Br)C4Br)C3C2=O)cc1 (stereo not given),inactive: 5.23%
7,Cc1nn(CC(=O)Nc2ccc(S(=O)(=O)N(C)C)cc2)c(C)c1[N+](=O)[O-],inactive: 6.03%
8,COc1ccc(OCC(=O)NNC(=O)c2c(-c3ccccc3Cl)noc2C)cc1,inactive: -9.76%
9,COc1cccc(CN2CCNC(=O)C2CC(=O)NCc2cn3cccc(C)c3n2)c1OC (stereo not given),inactive: -2.06%
10,CCN(CC)S(=O)(=O)c1ccc2oc(C(=O)NC3CC3)c(C)c2c1,inactive: 9.78%
11,FC(F)(F)c1cccc(NC(=S)N2CCN(c3ccccc3)CC2)c1,inactive: 10.4%
12,N#CCCn1c(C2CCCCC2)nc2ccccc21,inactive: 14.7%
13,NS(=O)(=O)c1ccc(CCN=Cc2ccccc2O)cc1,inactive: 13%
14,Cc1cccc(C)c1NC(=O)CNC(=O)Cc1ccccc1[N+](=O)[O-],inactive: 0.317%
15,O=C(NCc1ccccn1)/C(=C/c1ccco1)NC(=O)c1ccccc1,inactive: 9.18%
16,CCn1c(SCC(=O)NC2=NCCS2)nnc1C(C)NC(=O)c1ccccc1F (stereo not given),inactive: -23.9%
17,CC(Nc1nc2ccccc2n2cnnc12)c1ccccc1 (stereo not given),inactive: 23.9%
18,CCCc1cc(C(=O)Nc2cccc(Cl)c2C)no1,inactive: 21.7%
19,O=[N+]([O-])c1ccc(C(=S)N2CCC(Cc3ccccc3)CC2)cc1,inactive: 22.3%
20,O=[N+]([O-])c1ccc(O)c(/C=N/Nc2nc3ccccc3[nH]2)c1,inactive: 6.45%
21,COc1ccc(C2CC(c3ccccc3)=NN2C(=O)CCC(=O)O)cc1 (stereo not given),inactive: -16.7%
22,c1ccc(-c2nccc(-c3ccc4c(c3)OCO4)n2)cc1,inactive: 12.1%

row,Structure (SMILES),growth rescue (activation)
1,CN(C)c1ccc(N=Nc2ccc(C(=O)O)cc2)cc1,inactive: 13.6%
2,Cc1noc(C)c1S(=O)(=O)Nc1ccc(C(=O)NC2CCCCCC2)cc1,inactive: 22.4%
3,COc1ccc(CC(=O)N2CCC(n3nccc3NC(=O)C3CC3)CC2)cc1,inactive: 15.1%
4,COc1ccc(Br)cc1CN(C)CC(O)COc1ccc(Br)cc1 (stereo not given),inactive: -5.16%
5,COc1ccccc1NC(=O)c1c(N=Cc2c(O)ccc3ccccc23)cnn1C,inactive: -25%
6,COc1cc(NC(=S)N2CCN(CCO)CC2)c(OC)cc1Cl,inactive: -0.666%
7,CCOC(=O)c1ccc(NC(c2ccc(N(C)C)cc2)P(=O)(OC(C)C)OC(C)C)cc1 (stereo not given),inactive: -0.743%
8,COc1ccc(S(=O)(=O)NN(C)c2nc(C(F)(F)F)nc3ccccc23)cc1,inactive: 9.67%
9,CC(=O)N(C)c1ccc(C(O)(C(F)(F)F)C(F)(F)F)cc1,inactive: -7.9%
10,O=C1NC(=Nc2ccc(F)cc2)SC1Cc1ccc(F)cc1 (stereo not given),inactive: 1.02%
11,CC1(C(=O)NCc2cccs2)Cc2c(-c3ccc(C(N)=O)cc3)ccnc2O1 (stereo not given),inactive: 8.92%
12,COc1ccc(OC)c(NC(=S)NCc2cccs2)c1,inactive: 4.51%
13,O=C(CN1C(=O)COc2ccccc21)NNC(=O)Nc1ccccc1F,inactive: -9.51%
14,C/C(CC(=O)NCc1ccco1)=N\NC(=O)C(c1ccccc1)c1ccccc1,inactive: 0.374%
15,Cc1cccc(Oc2ccc(S(=O)(=O)N3CCCCC3)cc2N)c1,inactive: 23.2%
16,Cc1ccc(-c2nn3c(C)nnc3s2)cc1NC(=O)c1cccnc1,inactive: 16.8%
17,CCOc1ccc(CNc2ccc(N3CCOCC3)c(C(=O)O)c2)cc1,inactive: 3.47%
18,COc1ccc2ncc(OC(C)=O)cc2c1,inactive: 11.5%
19,CCN(CC)S(=O)(=O)c1ccc(N2CCOCC2)c(NC(=O)c2sccc2C)c1,inactive: 23.2%
20,COc1ccccc1NS(=O)(=O)c1cc(NC(=O)c2cc3ccccc3oc2=O)ccc1C,inactive: 6.65%
21,COc1ccc(NC(=S)N2CCCC(c3nc4ccc(C)cc4[nH]3)C2)cc1 (stereo not given),inactive: -0.905%
22,Cc1ccc(S(=O)(=O)NC(C)C(=O)NC(C)c2cccs2)cc1 (stereo not given),inactive: -14%
